Measurements from PubChem BioAssay AID588342 (National Center for Advancing Translational Sciences (NCATS), 2011).
In all, about 360,000 compounds went through this assay and about 25,000 (6.9%) were called active. Inconclusive results, whose numbers are uncertain, are shown with a selection of clear calls. Calls come from the whole dose curve; as a rule, active = well fitted inhibition curve with a large enough effect; inconclusive = small, poorly fitted or top-dose-only effect; inactive = flat fitted curve, though single readings scatter. Potencies beside an inconclusive call are fits to weak or partial responses and may not hold up.

Target: Luciferin 4-monooxygenase (Photinus pyralis) (UniProt P08659)
UniProt P08659, sequence (P08659 whole entry, looked up): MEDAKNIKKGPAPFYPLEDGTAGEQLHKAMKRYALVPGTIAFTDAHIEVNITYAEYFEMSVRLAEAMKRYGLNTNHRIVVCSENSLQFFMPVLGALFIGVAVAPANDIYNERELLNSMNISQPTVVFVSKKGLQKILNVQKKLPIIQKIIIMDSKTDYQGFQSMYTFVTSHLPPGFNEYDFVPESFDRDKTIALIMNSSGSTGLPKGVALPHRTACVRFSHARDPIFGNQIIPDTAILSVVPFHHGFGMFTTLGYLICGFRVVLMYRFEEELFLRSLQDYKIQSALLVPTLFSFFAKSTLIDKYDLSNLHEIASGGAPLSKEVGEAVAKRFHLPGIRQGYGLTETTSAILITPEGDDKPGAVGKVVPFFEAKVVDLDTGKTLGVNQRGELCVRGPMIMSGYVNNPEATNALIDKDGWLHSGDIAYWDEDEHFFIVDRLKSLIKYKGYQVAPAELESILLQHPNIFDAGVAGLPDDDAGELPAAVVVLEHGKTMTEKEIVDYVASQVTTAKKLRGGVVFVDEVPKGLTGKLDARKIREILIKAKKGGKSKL
Experiment: qHTS profiling assay for firefly luciferase inhibitor/activator using purifed enzyme and Km concentrations of substrates (counterscreen for miR-21 project); note: nearly all actives have a fitted effect of over 55% in size
Conditions: purified FLuc, luminescence inhibition; series mostly up to 57.5 µM
Outline: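 Biochemical qHTS of compounds, final roughly 60 µM downward over six points, against 10 nM purified firefly luciferase using Km concentrations of substrates (10 uM D-luciferin, 10 uM ATP) in Tris acetate pH 7.5 buffer; luminescence output.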
Potency is the fitted concentration of half-maximal effect; tags give direction and shape of the fitted curve.

Row | Compound | Potency
1 | N/C(Cc1cccc2ccccc12)=N\OC(=O)c1cccs1 | inactive
2 | CN1C(=O)c2cccc3c(N)ccc(c23)C1=O | inactive
3 | COCCCn1c(O)c(/C=C2\N=C(C#N)C(=Nc3ccc(C)cc3)O2)sc1=S | active: 6.75 µM
4 | O=C(NCc1ccc(-c2nc3ccccc3s2)cc1)c1cc2ccccc2o1 | inconclusive: 9.53 µM [inhibitor, partial curve, poor fit]
5 | Cc1ccc2oc(Nc3nc(-c4ccccc4)cc(=O)[nH]3)nc2c1 | inconclusive: 30.1 µM [inhibitor, single point]
6 | Cc1ccc(OCc2nc(-c3ccc(C(=O)NCCc4ccc(S(N)(=O)=O)cc4)cc3)oc2C)cc1 | inactive
7 | Cn1cccc1/C=N/NC(=O)c1cccc(OC(F)(F)C(F)F)c1 | active: 21.3 µM
8 | COc1ccc(CNC(=O)c2c(Nc3ccccc3C)sc(C(=O)c3ccccc3)c2N)cc1 | inactive
9 | O=C(Cc1cccs1)Nc1nc2c(s1)CCCC2 | active: 16.9 µM
10 | O=C(Nc1ccc2nc(SCC(=O)N3CCCC3)sc2c1)c1ccccc1F | active: 23.9 µM
11 | CCc1ccc(NC(=O)CCCc2nc(-c3ccco3)no2)cc1 | inactive
12 | Cc1cccc(C)c1OCC(=O)NCc1nnc(SCC(=O)NC2CCCCC2C)n1C (configuration not stated) | inactive
13 | O=C(CN1C2CCCC1CC(NC(=O)C1CCCCC1)C2)Nc1ccccc1C(F)(F)F (configuration not stated) | inactive
14 | O=C(Nc1ccc(F)cc1)c1ccccc1F | active: 21.3 µM
15 | O=C(CSC1CCCCC1)Nc1ccccc1Br | inconclusive: 37.9 µM [inhibitor, single point]
16 | CCOC(=O)c1cnc2c(OC)cccc2c1Nc1ccc2c(c1)OCCO2 | inconclusive: 23.9 µM [inhibitor, single point]
17 | COc1ccc(-c2nc(CS(=O)CC(=O)NCCC3=CCCCC3)c(C)o2)cc1 (configuration not stated) | inconclusive: 26.9 µM [inhibitor, partial curve, poor fit]
18 | Cc1ccccc1OCc1nc2ccccc2n1C | active: 8.49 µM
19 | CCn1c(SCc2ccccc2F)nc(=O)c2c(C(=O)OC)cc(C3CC3)nc21 | inconclusive: 21.3 µM [inhibitor, partial curve, poor fit]
20 | CC(C)c1nc2cc(C(=O)N3CCNC(=O)C3c3ccc(F)cc3)ccc2o1 (configuration not stated) | inactive
21 | Cc1c(O)ccc(C(=O)COc2ccccc2F)c1O | active: 21.3 µM
22 | CCOC(=O)c1sc(NC(=O)CSc2nnc(C(C)C)n2C)nc1C | inconclusive: 37.9 µM [inhibitor, partial curve, poor fit]
23 | COC(=O)c1ccc(-c2ncc(-c3cccc4ccccc34)o2)cc1 | inconclusive: 9.53 µM [inhibitor, partial curve]
24 | COc1ccc(C2=NCCn3nc4cc(OC)ccc4c32)cc1 | inconclusive: 26.9 µM [inhibitor, partial curve, poor fit]

Row | Compound | Potency
25 | CCCNc1ccc(-c2nc(-c3ccncc3)no2)cc1[N+](=O)[O-] | inconclusive: 8.49 µM [inhibitor, partial curve, poor fit]
26 | Cc1cccc(N2CCN(C(=O)c3ccc(NC(=O)c4nsc5ccccc45)cc3)CC2C)c1 (configuration not stated) | active: 4.78 µM
27 | Fc1cccc(-c2cc3nc4c(c(NCc5ccco5)n3n2)CCCC4)c1 | active: 7.57 µM
28 | COc1ccc(CCNC(=O)c2c(C)nn(-c3ccccc3)c2Cl)cc1 | inactive
29 | CCOc1ccc(-c2nnc(NC(=O)c3ccc(OCC(C)C)c(OC)c3)o2)cc1 | inconclusive: 23.9 µM [inhibitor, partial curve]
30 | CCOc1ccc(CNS(=O)(=O)c2ccc(-c3cc(C(F)(F)F)on3)s2)cc1 | inactive
31 | Cc1sc(NC(=S)NC(=O)c2ccco2)c(C(N)=O)c1C | inconclusive: 1.51 µM [inhibitor, partial curve, poor fit]
32 | Cc1ccc(C(=O)N(C)c2ccc(OCC(=O)N3c4ccc(C)cc4C4CN(C)CCC43)cc2)cc1 (configuration not stated) | active: 3.01 µM
33 | Cc1ccc(CCNC(=O)c2ccc(CSCc3ccccc3C)o2)cc1 | inactive
34 | CC(C)=CCOc1ccc2c(C)c(CC(=O)N3C[C@H]4C[C@@H](C3)c3cccc(=O)n3C4)c(=O)oc2c1C | inconclusive: 21.3 µM [inhibitor, single point]
35 | c1ccc(CSc2ccc(-c3ccccn3)nn2)nc1 | inconclusive: 26.9 µM [inhibitor, partial curve]
36 | COc1cccc(CNc2ccc(C(=O)O)cc2)c1OCc1ccccc1 | inconclusive: 23.9 µM [inhibitor, single point]
37 | NC(=O)C1CCN(c2nc(-c3ccc(Cl)cc3)cs2)CC1 | inconclusive: 9.53 µM [inhibitor, partial curve]
38 | CC1=C(C(=O)OCc2ccccc2)C(c2ccc(C(F)(F)F)cc2)NC(=O)N1CCCCCC(=O)O (configuration not stated) | inactive
39 | COc1ccc2c(c1)c(C(=O)N/N=C/c1cn(C)c3ccccc13)c(C)n2C | inconclusive: 37.9 µM [inhibitor, partial curve, poor fit]
40 | C=CCNC(=O)/C=C/c1c(F)cccc1Cl | inconclusive: 21.3 µM [inhibitor, single point]
41 | CCCCc1nc2cc(C(=O)N3CCCCC3CCO)ccc2o1 (configuration not stated) | inconclusive: 30.1 µM [inhibitor, partial curve, poor fit]
42 | O=C(O)c1cccc(NC(=S)NC(=O)c2ccncc2)c1 | inconclusive: 26.9 µM [inhibitor, single point]
43 | CNc1nn(-c2cccc(Cl)c2)nc1N | active: 23.9 µM
44 | COc1ccc2oc(=O)c(C(=O)N3CCN(c4ccc(F)cc4)CC3)cc2c1 | inactive
45 | COc1ccccc1N=NC1=C(O)CC(C)(C)CC1=O | inconclusive: 37.9 µM [inhibitor, partial curve, poor fit]
46 | C/C(=N\NC(=O)CNc1cccc(Cl)c1C)C1CC1 | inactive
47 | Cc1csc(NC(=O)c2cccs2)n1 | inconclusive: 23.9 µM [inhibitor, partial curve]
48 | CC(=O)N1N=C(c2ccc(C)cc2)CC1c1cn(-c2ccccc2)nc1-c1cccs1 (configuration not stated) | inactive

Row | Compound | Potency
49 | CCCS(=O)(=O)N1CCN(Cc2c[nH]c3ccccc23)CC1 | inactive
50 | CSc1ccc(CCNC(=O)c2ccc(-n3c(C)cc4c3CCCC4)cc2)cc1 | inactive
51 | CCOc1ccccc1C(=O)Nc1nnc(C(C)C)s1 | inconclusive: 37.9 µM [inhibitor, partial curve, poor fit]
52 | COc1ccccc1N(C)S(=O)(=O)c1ccc(Cl)c(C(=O)NC2=NCCS2)c1 | inactive
53 | CCOc1ccc2nc(COC(=O)c3ccco3)c(C(C)=O)[n+]([O-])c2c1 | inconclusive: 26.9 µM [inhibitor, single point]
54 | COc1ccc(-n2cnc3cc(NS(=O)(=O)c4ccccc4)ccc32)cc1 | inconclusive: 19 µM [inhibitor, partial curve, poor fit]
55 | Cc1ccccc1-n1ncc(C(C)NC(=O)c2ccco2)c1C (configuration not stated) | inconclusive: 26.9 µM [inhibitor, single point]
56 | O=C(Nc1nc(-c2ccccn2)cs1)c1cc(Cl)ccc1[N+](=O)[O-] | inconclusive: 37.9 µM [inhibitor, single point]
57 | O=S(=O)(O)c1cc2oc(-c3ccccc3)nc2c2ccccc12 | active: 9.53 µM
58 | COc1ccccc1CNC(=O)C(=O)c1cn(CC(=O)N2CCCC2)c2ccccc12 | inconclusive: 37.9 µM [inhibitor, single point]
59 | CCc1ccc2c(c1)NC(c1cccnc1)=NC(c1ccc(C(C)(C)C)cc1)=N2 | inactive
60 | CC(Sc1nnc(-c2cccnc2)n1N)C(=O)Nc1ccc2c(c1)OCCO2 (configuration not stated) | inactive
61 | COc1ccc(/C=C/C(=O)NCC(=O)N/N=C(/CCC(=O)O)c2ccccc2)cc1 | inconclusive: 37.9 µM [inhibitor, single point]
62 | O=C(NCCn1cc(SCc2ccccc2)c2ccccc21)c1ccccc1F | inconclusive: 21.3 µM [inhibitor, single point]
63 | O=C(CSc1nc(-c2cccs2)nc2cc(=O)[nH]n12)Nc1ccccc1Cl | inconclusive: 26.9 µM [inhibitor, single point]
64 | Clc1ccc2c(c1)nc1n2CCCC1 | inconclusive: 26.9 µM [inhibitor, partial curve, poor fit]
65 | CC(C)(C)c1ccc(OCCC(=O)OCC(=O)N2c3ccccc3NC(=O)C2(C)C)cc1 | inconclusive: 37.9 µM [inhibitor, partial curve, poor fit]
66 | CC(=O)Nc1nnc(SCC(=O)N2C(C)CCCC2C)s1 (configuration not stated) | inactive
67 | Cc1ccc(NC(=O)CSCC(=O)NNC(=O)c2nn(C)c(=O)c3ccccc23)cc1 | inconclusive: 26.9 µM [inhibitor, partial curve, poor fit]
68 | Cc1nc(N2CCN(Cc3ccc4c(c3)OCO4)CC2)c2cc(-c3ccccc3)sc2n1 | inconclusive: 13.5 µM [inhibitor, partial curve, poor fit]
69 | COc1ccc(NN=Nc2nc3c([nH]2)c(=O)n(C)c(=O)n3C)cc1 | inconclusive: 23.9 µM [inhibitor, partial curve, poor fit]
70 | Cc1ccc2nc(-c3ccc(Cl)c(NC(=O)c4ccc(Br)o4)c3)oc2c1 | inconclusive: 4.26 µM [inhibitor, partial curve]
71 | CSc1ccc(CCNC(=O)c2ccc(CS(=O)Cc3ccc(Cl)cc3)o2)cc1 (configuration not stated) | inconclusive: 26.9 µM [inhibitor, partial curve]
72 | COc1cc(C(C#N)N2CCC(c3ccccc3)=N2)ccc1O (configuration not stated) | inconclusive: 37.9 µM [inhibitor, partial curve, poor fit]
